Active and inactive are the calls of the source. Unless noted, calls come from the whole dose curve; as a rule, active = well fitted curve in the direction sought with a large enough effect in the repeat runs; inconclusive = weak or mixed curves; inactive = no such curve, though single readings can be large; an effect the other way counts as inactive or inconclusive.
How the values were obtained:
[1] = target: Androgen receptor (Homo sapiens) (UniProt P10275); assay: qHTS assay to identify small molecule antagonists of the androgen receptor (AR) signaling pathway (AID 743035; active = well fitted inhibition curve with a large enough effect in the signal ratio in the repeat runs, not every such curve was filed as active; inconclusive = weak or mixed curves, or effect the other way; inactive = no such curve, though single readings can be large or run the other way; the % refers to the signal ratio; note: potency is the fitted concentration of half-maximal effect; for activity change, negative = inhibition: % is set by controls: 0 for no effect and ±100 for the full control effect); conditions: HEK293 AR-UAS-bla, R1881-stimulated, beta-lactamase FRET, 16 h; activity change, negative = inhibition: at 58.5 µM (top of the series) unless noted
Procedure, shortened: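 Antagonism is scored as loss of R1881-driven beta-lactamase reporter expression in HEK293 cells carrying the reporter under a UAS element, after 16 h co-treatment at 37C and a 2 h room-temperature FRET substrate read.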

[2] = target: Androgen receptor (Homo sapiens) (UniProt P10275); assay: qHTS assay to identify small molecule agonists of the androgen receptor (AR) signaling pathway (AID 743036; active = well fitted activation curve with a large enough effect in the signal ratio in the repeat runs, with a control signal flat, not every such curve was filed as active; inconclusive = weak or mixed curves, or effect the other way; inactive = no such curve, though single readings can be large or run the other way; the % refers to the signal ratio; note: potency is the fitted concentration of half-maximal effect); conditions: HEK293 AR-UAS-bla GripTite, beta-lactamase FRET ratio, 16 h; activation: at 62.4 µM (top of the series) unless noted
Procedure, shortened: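 Screening used 2,000 AR-bla HEK293 cells per well, treated 16 h at 37C with test compounds in DMSO alongside positive and DMSO-only controls; beta-lactamase activity was then read by LiveBLAzer B/G FRET fluorescence after 2 h at room temperature.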

[3] = qHTS assay to identify small molecule antagonists of the androgen receptor (AR) signaling pathway using the MDA cell line - cell viability counter screen (AID 743041; note: potency is the fitted concentration of half-maximal effect; nearly all actives have a fitted effect of over 45% in size); conditions: MDA-kb2 viability, CellTiter-Fluor, 16 h, cells co-treated with R1881 androgen agonist; viability change, negative = cytotoxic: at 70.3 µM (top of the series) unless noted
Procedure, shortened: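 MDA-kb2 AR-luc cells (MMTV-luciferase, AR/GR responsive) treated with compounds plus R1881 agonist for 16 h at 37C. CellTiter-Fluor added at 15.5 h; fluorescence read after 30 min in the same wells.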

[4] = qHTS assay to identify small molecule antagonists of the thyroid receptor (TR) signaling pathway (AID 743065); note: % is set by controls: 0 for no effect and ±100 for the full control effect; nearly all actives have a fitted effect of over 55% in size
Procedure, shortened: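 GH3.TRE-Luc rat pituitary cells (two TREs driving luciferase) were dosed with compound, then stimulated with 1 nM T3 (final) for 23.5 h at 37 C. ONE-Glo luminescence was the read-out, with CellTiter-Fluor fluorescence as the cytotoxicity counter-screen.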

[5] = tested on: thyroid hormone receptor (rat, GH3 cells); assay: qHTS assay to identify small molecule agonists of the thyroid receptor (TR) signaling pathway (AID 743066; calls by dose curve; note: potency is the fitted concentration of half-maximal effect; for activation: % is set by controls: 0 for no effect and ±100 for the full control effect); conditions: GH3.TRE-Luc cells, TR agonist luciferase, 24 h; activation: at 83.9 µM (top of the series) unless noted
[6] = target: Estrogen receptor (Homo sapiens) (UniProt P03372); assay: qHTS assay to identify small molecule antagonists of the estrogen receptor alpha (ER-alpha) signaling pathway (AID 743069; active = well fitted curve in the direction sought with a large enough effect in the signal ratio in the repeat runs, not every such curve was filed as active; inconclusive = weak or mixed curves, or effect the other way; inactive = no such curve, though single readings can be large or run the other way; the % refers to the signal ratio; note: potency is the fitted concentration of half-maximal effect); conditions: HEK293 ER-alpha-UAS-bla, beta-lactamase ratio, antagonist mode; activity, negative = inhibition: at 69.4 µM (top of the series)
Procedure, shortened: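 HEK293 ER-alpha-UAS-bla GripTite cells, held overnight in 2% charcoal-stripped FBS, 5,000 cells/well, preincubated 4 h, then compound plus 17beta-estradiol for 18 h at 37C. Beta-lactamase read by LiveBLAzer B/G FRET substrate, 2 h at room temperature.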

[7] = qHTS assay to identify small molecule antagonists of the estrogen receptor alpha (ER-alpha) signaling pathway - cell viability counter screen (AID 743074; calls by dose curve;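 note: HEK293 cells carrying ER-alpha-UAS-bla reporter stimulated with 17beta-estradiol; nearly all actives have a fitted effect of over 45% in size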; note: potency is the fitted concentration of half-maximal effect)
[8] = target: Estrogen receptor (Homo sapiens) (UniProt P03372); assay: qHTS assay to identify small molecule agonists of the estrogen receptor alpha (ER-alpha) signaling pathway (AID 743075; calls by dose curve; note: potency is the fitted concentration of half-maximal effect); conditions: HEK293 ER-alpha-UAS-bla, beta-lactamase FRET ratio, 18 h; activation: at 70.1 µM (top of the series)
[9] = target: Estrogen receptor (Homo sapiens) (UniProt P03372); assay: qHTS assay to identify small molecule agonists of the estrogen receptor alpha (ER-alpha) signaling pathway using the BG1 cell line (AID 743079); conditions: BG1Luc4E2 cells, ERE-luciferase agonist, 22 h; activation: at 70.3 µM (top of the series) unless noted; note: nearly all actives have a fitted effect of over 20% in size; note: potency is the fitted concentration of half-maximal effect; for activation: % is set by controls: 0 for no effect and ±100 for the full control effect
[10] = qHTS assay to identify small molecule antagonists of the estrogen receptor alpha (ER-alpha) signaling pathway using the BG1 cell line (AID 743080; calls by dose curve;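 note: BG1 cells stimulated with 17beta-estradiol alongside compound; potency is the fitted concentration of half-maximal effect; nearly all actives have a fitted effect of over 25% in size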); conditions: BG1Luc4E2 ERE-luciferase antagonist mode, luminescence; activity change, negative = inhibition: at 70.3 µM (top of the series) unless noted
Procedure, shortened: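 BG1-Luc-4E2 cells (endogenous full-length ER-alpha, 4xERE luciferase) hormone-starved 5 days in charcoal-stripped FBS, plated 4,000/well for 24 h, then compound plus 17beta-estradiol for 21.5 h at 37 C; ONE-Glo luminescence read.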

[11] = qHTS assay to identify small molecule antagonists of the estrogen receptor alpha (ER-alpha) signaling pathway using the BG1 cell line - cell viability counter screen (AID 743081);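 note: compound given together with 17beta-estradiol as the ER stimulus; potency is the fitted concentration of half-maximal effect; nearly all actives have a fitted effect of over 45% in size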
[12] = target: Peroxisome proliferator-activated receptor gamma (Homo sapiens) (UniProt P37231); assay: qHTS assay to identify small molecule agonists of the peroxisome proliferator-activated receptor gamma (PPARg) signaling pathway (AID 743094; active = well fitted activation curve with a large enough effect in the signal ratio in the repeat runs, not every such curve was filed as active; inconclusive = weak or mixed curves, or effect the other way; inactive = no such curve, though single readings can be large or run the other way; the % refers to the signal ratio; note: potency is the fitted concentration of half-maximal effect; for activation: % is set by controls: 0 for no effect and ±100 for the full control effect); conditions: HEK293H PPARg-UAS-bla, beta-lactamase FRET ratio, 17 h; activation: at 57 µM (top of the series) unless noted
Procedure, shortened: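 Quantitative HTS agonist mode: stable HEK293H line with UAS-beta-lactamase reporter under PPARg control, 17 h compound exposure at 37C, fluorescence after 1 h FRET substrate loading at room temperature.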

[13] = target: Peroxisome proliferator-activated receptor gamma (Homo sapiens) (UniProt P37231); assay: qHTS assay to identify small molecule antagonists of the peroxisome proliferator-activated receptor gamma (PPARg) signaling pathway (AID 743191; calls by dose curve; note: potency is the fitted concentration of half-maximal effect; nearly all actives have a fitted effect of over 30% in size); conditions: HEK293H PPARg-UAS-bla, beta-lactamase ratio, antagonist, 17 h; ratio activity, negative = inhibition: at 62.6 µM (top of the series) unless noted
Procedure, shortened: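 GeneBLAzer PPARg UAS-bla HEK293H cells, 5 h post-plating, exposed to compounds 17 h at 37C. LiveBLAzer B/G FRET substrate added for 1 h at room temperature; beta-lactamase reporter read by fluorescence intensity.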

[14] = qHTS assay to identify small molecule antagonists of the thyroid receptor (TR) signaling pathway - cell viability counter screen (AID 743064); conditions: GH3.TRE-Luc viability, CellTiter-Fluor, 24 h; activity change, negative = cytotoxic: at 70.3 µM (top of the series); note: potency is the fitted concentration of half-maximal effect; nearly all actives have a fitted effect of over 50% in size
Procedure, shortened: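 Viability of T3-stimulated (1 nM final) GH3.TRE-Luc cells is measured by CellTiter-Fluor fluorescence after 23.5 h compound exposure at 37 °C plus 30 min reagent incubation.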

[15] = qHTS assay to identify aromatase inhibitors - cell viability counter screen (AID 743084);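 note: cells stimulated with testosterone during compound exposure; potency is the fitted concentration of half-maximal effect; nearly all actives have a fitted effect of over 55% in size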
[16] = target: Aryl hydrocarbon receptor (Homo sapiens) (UniProt P35869); assay: qHTS assay to identify small molecule that activate the aryl hydrocarbon receptor (AhR) signaling pathway (AID 743085); note: nearly all actives have a fitted effect of over 15% in size; note: potency is the fitted concentration of half-maximal effect
Procedure, shortened: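 A multiplexed format paired cell viability (CellTiter-Fluor fluorescence) with AhR-dependent luciferase output (ONE-Glo luminescence) in the same wells of HepG2 DRE-luc cells after 24 h compound exposure at 37C.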

[17] = qHTS assay to identify small molecule that activate the aryl hydrocarbon receptor (AhR) signaling pathway - cell viability counter screen (AID 743086); note: potency is the fitted concentration of half-maximal effect; nearly all actives have a fitted effect of over 45% in size
Procedure, shortened: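 HepG2-AhR-luc (HG2L7.5c1) cells, 4000/well, treated 24 h at 37 C with compound; viability measured as CellTiter-Fluor fluorescence after 30 min in the same wells as the luciferase read.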
Tags give direction and shape of the fitted curve or compound fluorescence and quenching.

Chain of UniProt P37231 (P37231 whole entry, looked up): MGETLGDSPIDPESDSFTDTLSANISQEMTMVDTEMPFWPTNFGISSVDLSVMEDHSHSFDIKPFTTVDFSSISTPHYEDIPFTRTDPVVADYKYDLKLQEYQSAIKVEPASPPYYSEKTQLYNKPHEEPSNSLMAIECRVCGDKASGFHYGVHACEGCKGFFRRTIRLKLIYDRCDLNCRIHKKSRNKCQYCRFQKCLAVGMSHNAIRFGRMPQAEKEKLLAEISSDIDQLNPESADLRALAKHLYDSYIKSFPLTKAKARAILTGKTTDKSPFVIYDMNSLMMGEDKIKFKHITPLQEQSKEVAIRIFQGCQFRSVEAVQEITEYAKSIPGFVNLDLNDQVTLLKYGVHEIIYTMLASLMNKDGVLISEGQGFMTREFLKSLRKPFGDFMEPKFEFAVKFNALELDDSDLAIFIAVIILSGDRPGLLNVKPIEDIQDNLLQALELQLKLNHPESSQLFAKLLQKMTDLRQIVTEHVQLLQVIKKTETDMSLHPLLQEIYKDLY
Chain of UniProt P10275 (P10275 whole entry, looked up): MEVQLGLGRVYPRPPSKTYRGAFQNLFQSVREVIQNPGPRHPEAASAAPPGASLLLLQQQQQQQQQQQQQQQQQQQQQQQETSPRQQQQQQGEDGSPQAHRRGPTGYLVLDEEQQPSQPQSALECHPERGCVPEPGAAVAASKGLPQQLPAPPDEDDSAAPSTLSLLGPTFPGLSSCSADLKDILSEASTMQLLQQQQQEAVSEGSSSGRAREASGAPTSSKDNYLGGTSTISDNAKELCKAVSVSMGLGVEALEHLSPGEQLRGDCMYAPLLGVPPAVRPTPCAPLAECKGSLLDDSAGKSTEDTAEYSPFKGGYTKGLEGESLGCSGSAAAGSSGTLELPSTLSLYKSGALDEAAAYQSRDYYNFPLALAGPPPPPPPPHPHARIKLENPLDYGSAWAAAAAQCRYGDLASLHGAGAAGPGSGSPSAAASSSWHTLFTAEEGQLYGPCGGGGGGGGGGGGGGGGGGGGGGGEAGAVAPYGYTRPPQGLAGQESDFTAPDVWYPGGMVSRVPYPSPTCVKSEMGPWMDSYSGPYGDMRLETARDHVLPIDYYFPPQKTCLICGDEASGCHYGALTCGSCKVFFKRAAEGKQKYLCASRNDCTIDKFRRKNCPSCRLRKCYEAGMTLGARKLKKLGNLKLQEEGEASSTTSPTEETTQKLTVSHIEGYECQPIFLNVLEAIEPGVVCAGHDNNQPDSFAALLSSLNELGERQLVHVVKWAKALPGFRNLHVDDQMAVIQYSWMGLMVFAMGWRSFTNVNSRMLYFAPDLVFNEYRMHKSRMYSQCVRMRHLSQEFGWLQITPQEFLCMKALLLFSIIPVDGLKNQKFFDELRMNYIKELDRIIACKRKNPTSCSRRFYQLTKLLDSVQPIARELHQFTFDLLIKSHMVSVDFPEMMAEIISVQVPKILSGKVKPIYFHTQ
Chain of UniProt P03372 (P03372 whole entry, looked up): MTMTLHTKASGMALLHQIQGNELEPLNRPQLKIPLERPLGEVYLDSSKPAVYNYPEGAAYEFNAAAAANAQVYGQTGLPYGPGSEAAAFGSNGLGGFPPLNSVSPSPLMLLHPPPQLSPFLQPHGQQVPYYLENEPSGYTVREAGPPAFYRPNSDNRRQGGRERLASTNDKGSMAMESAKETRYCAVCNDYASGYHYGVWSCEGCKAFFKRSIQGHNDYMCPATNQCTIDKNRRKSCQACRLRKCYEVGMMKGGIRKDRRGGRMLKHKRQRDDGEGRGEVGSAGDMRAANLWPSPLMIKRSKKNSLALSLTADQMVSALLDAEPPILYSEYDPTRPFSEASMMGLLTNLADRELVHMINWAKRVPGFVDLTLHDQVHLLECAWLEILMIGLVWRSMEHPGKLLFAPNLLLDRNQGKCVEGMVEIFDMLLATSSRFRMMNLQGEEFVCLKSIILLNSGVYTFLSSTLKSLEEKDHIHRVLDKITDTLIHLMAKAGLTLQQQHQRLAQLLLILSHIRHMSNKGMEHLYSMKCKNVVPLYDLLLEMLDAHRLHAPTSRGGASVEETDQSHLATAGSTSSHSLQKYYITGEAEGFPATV
Chain of UniProt P35869 (P35869 whole entry, looked up): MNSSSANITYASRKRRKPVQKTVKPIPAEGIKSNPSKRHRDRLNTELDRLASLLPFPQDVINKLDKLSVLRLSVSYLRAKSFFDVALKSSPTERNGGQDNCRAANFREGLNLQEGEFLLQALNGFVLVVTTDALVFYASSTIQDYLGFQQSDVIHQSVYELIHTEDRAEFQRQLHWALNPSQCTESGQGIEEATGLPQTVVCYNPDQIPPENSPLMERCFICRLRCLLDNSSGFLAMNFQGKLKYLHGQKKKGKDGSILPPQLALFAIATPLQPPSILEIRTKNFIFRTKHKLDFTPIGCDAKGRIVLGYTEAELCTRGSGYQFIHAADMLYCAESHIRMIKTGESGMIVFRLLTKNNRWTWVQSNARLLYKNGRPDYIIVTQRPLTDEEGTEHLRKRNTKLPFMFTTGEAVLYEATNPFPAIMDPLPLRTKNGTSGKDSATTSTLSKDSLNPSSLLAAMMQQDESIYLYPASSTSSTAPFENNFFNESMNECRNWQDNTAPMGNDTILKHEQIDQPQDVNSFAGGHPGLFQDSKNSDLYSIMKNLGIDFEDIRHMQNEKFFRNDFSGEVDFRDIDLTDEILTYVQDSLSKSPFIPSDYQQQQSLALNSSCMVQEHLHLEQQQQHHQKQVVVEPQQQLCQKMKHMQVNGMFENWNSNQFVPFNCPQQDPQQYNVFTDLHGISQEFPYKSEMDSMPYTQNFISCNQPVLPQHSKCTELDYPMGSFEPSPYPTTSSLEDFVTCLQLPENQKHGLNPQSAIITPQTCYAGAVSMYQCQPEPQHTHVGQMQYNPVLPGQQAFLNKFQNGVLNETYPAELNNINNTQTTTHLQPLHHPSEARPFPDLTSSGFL

CCC[CH2][Sn]([CH2]CCC)([CH2]CCC)[O][Sn]([CH2]CCC)([CH2]CCC)[CH2]CCC
active: Potency [1] 0.427 µM | Potency [3] 1.5 µM | Potency [7] 0.852 µM | Potency [12] 0.676 µM
inconclusive: Potency [2] 0.269 µM [rising, partial curve] | activation [5] -9.54% [phenotype inactive] [at 8.08 µM] | Potency [6] 0.151 µM [rising, full curve] | Potency [8] 1.35 µM [falling, partial curve] | Potency [9] 0.134 µM [inhibitor, full curve] | Potency [10] 0.15 µM [falling, full curve] | Potency [11] 0.212 µM [cytotoxic, full curve] | Potency [13] 0.0537 µM
inactive: activity, negative = inhibition [4] 7.29% [at 8.44 µM]

O=C(Nc1ccccc1)Nc1ccnc(Cl)c1
active: Potency [6] 13.8 µM [inconclusive]
inconclusive: Potency [1] 12.3 µM | Potency [2] 1.55 µM [rising, full curve, poor fit] | Potency [3] 68.6 µM [cytotoxic, single point] | Potency [14] 68.6 µM [cytotoxic, single point] | Potency [9] 24.3 µM [inhibitor, partial curve] | Potency [10] 48.6 µM [falling, partial curve] | Potency [15] 61.1 µM [cytotoxic] | Potency [16] 10.9 µM [activator, partial curve] | activation [12] -12.8%
inactive: Potency [7]

COP(=S)(OC)Oc1ccc([N+](=O)[O-])cc1Cl
inactive: Potency [9]
inconclusive: Potency [1] 38.9 µM [rising, partial curve] | Potency [2] 21.9 µM [rising, partial curve] | Potency [3] 77 µM [cytotoxic, partial curve, poor fit] | Potency [6] 6.92 µM [activator, full curve] | Potency [11] 68.6 µM [cytotoxic, partial curve, poor fit] | Potency [15] 68.6 µM [cytotoxic] | Potency [16] 48.6 µM [activator]
active: Potency [17] 61.1 µM

CCCCCCCCCCCCCCCCCCn1cc[n+](C)c1
active: Potency [1] 3.87 µM | Potency [14] 12.1 µM | Potency [6] 9.72 µM [inconclusive] | Potency [7] 38.7 µM | Potency [11] 30.5 µM | Potency [15] 21.6 µM
inconclusive: Potency [2] 61.3 µM [cytotoxic, single point] | Potency [3] 48.3 µM [cytotoxic, partial curve] | Potency [5] 4.3 µM [inhibitor, partial curve, poor fit] | Potency [9] 24.2 µM [inhibitor, partial curve] | Potency [10] 27.1 µM [falling, partial curve] | Potency [17] 19.2 µM [falling, partial curve] | Potency [12] 61.3 µM [cytotoxic, single point] | Potency [13] 61.3 µM [cytotoxic, single point]

[CH3][Hg][Cl]
active: Potency [11] 34.3 µM | Potency [15] 24.3 µM
inactive: Potency [16]
inconclusive: activity change, negative = inhibition [1] 7.21% | Potency [2] 19.5 µM [activator, single point] | Potency [5] 15.3 µM [inhibitor, partial curve, poor fit] | Potency [6] 24.5 µM [fluorescent, partial curve] | Potency [8] 13.8 µM [falling, partial curve] | Potency [10] 68.4 µM [falling, single point] | Potency [12] 5.48 µM [fluorescent, single point] | Potency [13] 9.75 µM [inhibitor, full curve, poor fit]

From PubChem BioAssay (Tox21)
